According to article PMC11995724, “Antibiotic target discovery by integrated phenotypic and activity-based profiling of electrophilic fragments” (Cell chemical biology, 2025):
Among all 3,200 compounds or so, about 75 (2%) showed an effect of 50% or more. Some of the results follow.

test system: T1, S. aureus MSSA476; parameters: species or system S. aureus MSSA476 (TSB) or V. cholerae SAD30 (LB); 384-well bacterial growth screen at 25 uM, OD600 relative to DMSO control; details: relative growth, OD600, TSB; 25 µM; inhibitor
T1 construct: MSSA476

Compound	% of control remaining [%]
C=CC(=O)NC1CCC(c2nc(CC)no2)CC1 (stereo not drawn) [1-O08, N-[4-(3-ethyl-1,2,4-oxadiazol-5-yl)cyclohexyl]prop-2-enamide]	122.374
N#CC(=Cc1ccc(Sc2ccccc2)o1)C(=O)Nc1ccccc1 [8-K05, 2-cyano-N-phenyl-3-[5-(phenylsulfanyl)furan-2-yl]prop-2-enamide]	128.465
O=C(CCl)NC(=O)Nc1ccccc1 [4-I17, 3-(2-chloroacetyl)-1-phenylurea]	104.431
O=C(CCl)Nc1ccc(F)cc1[N+](=O)[O-] [4-I07, 2-chloro-N-(4-fluoro-2-nitrophenyl)acetamide]	119.295
O=C(CCl)NCCSc1ccccc1 [4-G21, 2-chloro-N-[2-(phenylsulfanyl)ethyl]acetamide]	99.4759
C=CC(=O)Nc1cc(C(=O)CC)ccc1F [2-C22, N-(2-fluoro-5-propanoylphenyl)prop-2-enamide]	105.135
C=CC(=O)N1CCC(C(=O)NCc2ccc(Cl)cc2Cl)CC1 [1-E20, N-[(2,4-dichlorophenyl)methyl]-1-(prop-2-enoyl)piperidine-4-carboxamide]	109.363
CNC(=O)C(NC(=O)CCl)c1ccccc1 (stereo not drawn) [6-M06, 2-(2-chloroacetamido)-N-methyl-2-phenylacetamide]	96.9756
CN(CC(=O)Nc1ccccc1C(F)(F)F)C(=O)CCl [4-K05, 2-chloro-N-methyl-N-({[2-(trifluoromethyl)phenyl]carbamoyl}methyl)acetamide]	92.6155
CC(Cl)C(=O)Nc1ccc(C(=O)N(C)C2CCCN(C)C2)cc1 (stereo not drawn) [7-I20, 4-(2-chloropropanamido)-N-methyl-N-(1-methylpiperidin-3-yl)benzamide]	87.9121
C=CC(=O)N1CCNC(=O)C1Cc1nc2ccccc2o1 (stereo not drawn) [1-B20, 3-[(1,3-benzoxazol-2-yl)methyl]-4-(prop-2-enoyl)piperazin-2-one]	119.209
CC(C)Oc1ccc(C=C(C#N)C(=O)NC2CCCC2)cc1 [8-O10, 2-cyano-N-cyclopentyl-3-[4-(propan-2-yloxy)phenyl]prop-2-enamide]	92.2822
CC(Cl)C(=O)N(c1ccccc1)C1CCOC1 (stereo not drawn) [7-G14, 2-chloro-N-(oxolan-3-yl)-N-phenylpropanamide]	106.75
CC(CNC(=O)C(C)Cl)Oc1cccc(Cl)c1 (stereo not drawn) [6-F13, 2-chloro-N-[2-(3-chlorophenoxy)propyl]propanamide]	94.2439
C=CC(=O)N1CCC(C(=O)N2CCC(C(=O)NC3CC3)CC2)CC1 [2-D10, N-cyclopropyl-1-[1-(prop-2-enoyl)piperidine-4-carbonyl]piperidine-4-carboxamide]	106.527
COc1ccccc1N1C(=O)C=CC1=O [10-O10, 1-(2-methoxyphenyl)-2,5-dihydro-1H-pyrrole-2,5-dione]	118.438
CCOc1ccccc1NC(=O)C(C)Cl (stereo not drawn) [6-M10, 2-chloro-N-(2-ethoxyphenyl)propanamide]	106.195
O=C(CCl)Nc1c(Cl)c(Cl)cc(Cl)c1Cl [4-O16, 2-chloro-N-(2,3,5,6-tetrachlorophenyl)acetamide]	99.4759
C=CC(=O)N(Cc1c(C)cccc1C)C1CCc2nc(C)nn2C1 (stereo not drawn) [1-B11, N-[(2,6-dimethylphenyl)methyl]-N-{2-methyl-5H,6H,7H,8H-[1,2,4]triazolo[1,5-a]pyridin-6-yl}prop-2-enamide]	109.011
CC(C)n1cc(C2=CCCN(C(=O)CCl)CC2)nn1 [5-F05, 2-chloro-1-{4-[1-(propan-2-yl)-1H-1,2,3-triazol-4-yl]-2,3,6,7-tetrahydro-1H-azepin-1-yl}ethan-1-one]	83.4244
C=CC(=O)N(Cc1ccccc1)C1CCOc2ccc(OC)cc21 (stereo not drawn) [1-O17, N-benzyl-N-(6-methoxy-3,4-dihydro-2H-1-benzopyran-4-yl)prop-2-enamide]	97.4066
CC(Cl)C(=O)NC(C)(C)c1ccc(F)cc1F (stereo not drawn) [6-E21, 2-chloro-N-[2-(2,4-difluorophenyl)propan-2-yl]propanamide]	91.8537
CC(Cl)C(=O)N(Cc1nc(C2CCCCCC2)no1)C1CC1 (stereo not drawn) [7-E05, 2-chloro-N-[(3-cycloheptyl-1,2,4-oxadiazol-5-yl)methyl]-N-cyclopropylpropanamide]	87.5981
COc1cccc(NC(=O)C(C)Cl)c1 (stereo not drawn) [6-I03, 2-chloro-N-(3-methoxyphenyl)propanamide]	104.146
Cl.O=C(CCl)NC(c1ccccc1)C1CC1c1ccncc1 (stereo not drawn) [7-F03, 2-chloro-N-{phenyl[2-(pyridin-4-yl)cyclopropyl]methyl}acetamide hydrochloride]	99.843
N#CC(=Cc1ccc([N+](=O)[O-])c(Cl)c1)C(=O)NCc1ccccc1 [8-D08, N-benzyl-3-(3-chloro-4-nitrophenyl)-2-cyanoprop-2-enamide]	72.0332
C=CC(=O)N(CC)Cc1cccc2c1OCO2 [3-I05, N-[(1,3-dioxaindan-4-yl)methyl]-N-ethylprop-2-enamide]	107.967
CC(Cl)C(=O)NCc1ccc(C(=O)Nc2ccc(F)cc2)cc1 (stereo not drawn) [7-G19, 4-[(2-chloropropanamido)methyl]-N-(4-fluorophenyl)benzamide]	94.8195
CC(Cl)C(=O)Nc1sc2c(c1C(N)=O)CCC2 (stereo not drawn) [6-A21, 2-(2-chloropropanamido)-4H,5H,6H-cyclopenta[b]thiophene-3-carboxamide]	103.122
COc1cc(C=C(C#N)C(N)=O)ccc1OC(F)F [8-P08, 2-cyano-3-[4-(difluoromethoxy)-3-methoxyphenyl]prop-2-enamide]	117.842
